# In PubChem BioAssay AID651820 (National Center for Advancing Translational Sciences (NCATS), 2012):
# Out of some 340,000 compounds screened, about 12,000 (3.5%) were called active. The shares of active, inactive and inconclusive entries below differ from those in the screen. Calls come from the whole dose curve; as a rule, active = well fitted inhibition curve with a large enough effect; inconclusive = small, poorly fitted or top-dose-only effect, or another doubt; inactive = no such curve, though single readings can be large or run the other way. Potencies of inconclusive entries are left out as doubtful fits.
# Test: qHTS Assay for Inhibitors of Hepatitis C Virus (HCV)
# Conditions: Huh7.5.1 HCVcc-Cre (HCVcc is cell-culture hepatitis C virus) infection, luciferase reporter, 44 h; series mostly up to 41.8 µM
# Method in brief: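 Cells (1,000/well) were plated 4 h before compound, then infected with HCVcc-Cre virus (~0.5 moi). After 44 h further culture, infection was read as luciferase luminescence following a 15 min substrate incubation at room temperature.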
# Potency is the fitted concentration of half-maximal effect; tags give direction and shape of the fitted curve.
row,SMILES,Potency
1,CCOc1cc(-c2nc(-c3ccncc3)no2)cc(OCC)c1OCC,inactive
2,Cc1ccc2nc(C)cc(C(=O)N3CCCC(N4CCN(c5ccccc5C)CC4)C3)c2c1 (stereo unspecified),"inconclusive [inhibitor, single point]"
3,Cc1cc(C)c(S(=O)(=O)Nc2ccc3[nH]c(=O)[nH]c3c2)c(C)c1,"inconclusive [inhibitor, partial curve]"
4,COc1ccccc1CC(=O)N1CCN(c2cccc(Cl)c2)CC1,"inconclusive [inhibitor, single point]"
5,COc1cccc(OC)c1C(=O)NC(=S)Nc1ccc(S(=O)(=O)Nc2nccs2)cc1,inactive
6,CCCC(C)C(=O)Nc1nc(C)c(-c2csc(Nc3cc(OC)ccc3OC)n2)s1 (stereo unspecified),"inconclusive [inhibitor, single point]"
7,COc1ccc(Cl)cc1NC(=O)CCn1c(=O)oc2ccccc21,"inconclusive [inhibitor, partial curve]"
8,Cc1ccccc1-c1nc(P(=O)(c2ccccc2)c2ccccc2)c(N2CCOCC2)o1,inactive
9,COc1ccc(C(CNC(=O)COc2ccc(Cl)cc2C)N2CCCCC2)cc1 (stereo unspecified),"inconclusive [inhibitor, single point]"
10,CCOC(=O)C1=C(CC)Nc2ccccc2N=C1NC(=O)c1ccc(S(=O)(=O)N2CCCC2)cc1,"inconclusive [inhibitor, partial curve]"
11,Cc1ccc(N2C(=O)NC(NC(=O)C3CC3)(C(F)(F)F)C2=O)cc1 (stereo unspecified),inactive
12,Cc1ccc(/C=C/C(=O)c2ccc(N3CCOCC3)cc2)s1,"inconclusive [inhibitor, single point]"
13,Cc1ccc(NC(=O)c2ccc(OCc3c(C)noc3C)cc2)nc1,active: 11.2 µM
14,Cc1ncn(-c2ccccc2)c1-c1ccccc1,"inconclusive [inhibitor, single point]"
15,Cc1cc2cc(CNC(=O)COc3ccccc3)ccc2n1C,inactive
16,O=C(COC(=O)c1ccccc1Nc1cccc(C(F)(F)F)c1)NCc1ccco1,"inconclusive [inhibitor, single point]"
17,COc1ccc(/C=N/NC(=O)CN(C2=NS(=O)(=O)c3ccccc32)c2ccccc2)cc1,"inconclusive [inhibitor, single point]"
18,CCOC(=O)c1oc2nc(CC(C)C)c3c(c2c1N)CCC3,"inconclusive [inhibitor, partial curve]"
19,Cc1ccc(S(=O)(=O)N2Cc3ccccc3CC2C(=O)Nc2ccc3c(c2)OCO3)cc1 (stereo unspecified),"inconclusive [inhibitor, single point]"
20,Cc1ccc(-c2nn3c(C)nnc3c3ccccc23)cc1S(=O)(=O)NCc1ccco1,"inconclusive [inhibitor, partial curve]"
21,COCCn1c(C)cc(C(=O)COC(=O)c2ccc([N+](=O)[O-])o2)c1C,inactive
22,O=C(O)CSc1nc2ccccc2nc1Cc1ccccc1F,inactive

row,SMILES,Potency
1,COC1C(CO)OC(n2c3c(Cl)cccc3c3c4c(c5c6cccc(Cl)c6[nH]c5c32)C(=O)NC4=O)C(O)C1O (stereo unspecified),"inconclusive [inhibitor, full curve]"
2,COc1cc(/C=N/NC(=O)c2cn(-c3cccc(C)n3)cn2)ccc1O,"inconclusive [inhibitor, single point]"
3,Cc1[nH]nc(-c2ccc(OCc3cnn(-c4ccccc4)c3)cc2O)c1Oc1ccc(F)cc1,"inconclusive [inhibitor, single point]"
4,c1ccc2c(c1)NC(c1ccncc1)n1c-2nc2ccccc21 (stereo unspecified),"inconclusive [inhibitor, partial curve]"
5,O=C(NC1CCN(C(=O)c2cccc([N+](=O)[O-])c2)CC1)c1ccccc1,inactive
6,Cc1ccc(/C=C/C(=O)NCCc2c[nH]c3ccccc23)o1,"inconclusive [inhibitor, full curve, poor fit]"
7,COc1ccc(O)c(C(=O)c2cc(C(=O)NCCc3ccccc3)c(=O)n(CCc3ccccc3)c2)c1,"inconclusive [inhibitor, partial curve, poor fit]"
8,COc1cc(OC)c(-c2oc3ccccc3c(=O)c2O)c(OC)c1,"inconclusive [inhibitor, partial curve]"
9,COc1ccc(S(=O)(=O)N2CCNCC2)cc1,inactive
10,Cc1ccc(-c2ccc(/C=N/NC(=O)CN3CCOCC3)o2)cc1[N+](=O)[O-],"inconclusive [inhibitor, single point]"
11,CC(C)Cn1c(N)c(C(=O)COC(=O)c2cc3ccccc3cc2O)c(=O)n(C)c1=O,"inconclusive [inhibitor, full curve]"
12,COC(=O)C1=NN(C(=O)c2ccc(Br)cc2)C(O)(C(C)(C)C)C1 (stereo unspecified),"inconclusive [inhibitor, partial curve]"
13,CCOc1cc(NC(=S)NCC2CCCO2)c(OCC)cc1NC(=O)c1cccc(F)c1 (stereo unspecified),"inconclusive [inhibitor, partial curve, poor fit]"
14,O=C(Nc1nc2ccccc2[nH]1)C1CC1,"inconclusive [inhibitor, partial curve]"
15,COc1ccc(N2C(=O)/C(=C/c3ccc(C)o3)C(=O)NC2=S)c(OC)c1,inactive
16,Cc1cccc(NC(=O)c2sc3nc(N)c(C#N)cc3c2N)c1,inactive
17,Cc1cc(C)nc(N2CCC(C(=O)NCCc3ccc(F)cc3)CC2)n1,inactive
18,Cc1sc(NC(=O)c2ccco2)c(CN2CCN(Cc3ccccc3)CC2)c1C,"inconclusive [inhibitor, partial curve]"
19,COc1ccc(-c2csc(NC(=O)CS(=O)(=O)c3ccc(F)cc3)n2)cc1OC,"inconclusive [inhibitor, single point]"
20,CCOC(=O)c1c(C)[nH]c(C(=O)OCC(=O)N2CCCC2=O)c1C,"inconclusive [inhibitor, single point]"
21,CN(C)c1nc(N/N=C/c2c[nH]c3ccccc23)nc(N2CCOCC2)n1,"inconclusive [inhibitor, single point]"
22,O=C(CNC(=O)c1ccc(S(=O)(=O)N2CCCC2)cc1)N/N=C/c1ccc(Cl)cc1Cl,"inconclusive [inhibitor, partial curve]"

row,SMILES,Potency
1,Cc1cc(S(=O)(=O)N2CCOCC2)ccc1OCC(=O)NCc1ccccn1,inactive
2,O=C(Nc1cc(-c2ccccc2)[nH]n1)c1ccccc1F,inactive
3,CN(C)c1nnnn1-c1cccc(Oc2ncc(C(F)(F)F)cc2Cl)c1,"inconclusive [inhibitor, single point]"
4,Cc1ccc(NC(=O)Cc2ccc(-c3ccccc3)cc2)nc1,"inconclusive [inhibitor, single point]"
5,CC(=Nc1cccc(C)c1)c1sc2ccccc2c1O,"inconclusive [inhibitor, single point]"
6,Cc1ccc2c(c1)C1C=CCC1C(C(=O)NCCCN1CCOCC1)N2 (stereo unspecified),"inconclusive [inhibitor, full curve, poor fit]"
7,Cc1ccccc1NC(=O)c1nc[nH]c1C(=O)NCc1ccccc1,"inconclusive [inhibitor, single point]"
8,O=C(CNC(=O)c1ccco1)N/N=C/c1cc(Br)ccc1O,"inconclusive [inhibitor, single point]"
9,CCCc1cc(=O)c2c(O)ccc(OC)c2o1,"inconclusive [inhibitor, single point]"
10,COc1ccc(CCN(C(=O)C(F)(F)F)C(C(=O)NC2CCCCC2)c2cccs2)cc1 (stereo unspecified),"inconclusive [inhibitor, single point]"
11,COc1ccccc1NS(=O)(=O)c1cc(C(=O)NCC(c2ccco2)N2CCCCC2)ccc1C (stereo unspecified),"inconclusive [inhibitor, single point]"
12,Cc1c(NC(=O)CSc2ncnc3c2cnn3-c2ccccc2)c(=O)n(-c2ccccc2)n1C,"inconclusive [inhibitor, single point]"
13,O=C1C=C(c2cccc(Cl)c2O)C[C@@H](c2ccc(Cl)cc2)C1,"inconclusive [inhibitor, partial curve, poor fit]"
14,CSc1nc2ccc(NC(=O)c3ccc(Cl)s3)cc2s1,inactive
15,Cn1c(OCc2cccnc2)nc2c1c(=O)n(Cc1ccc(F)cc1)c(=O)n2C,"inconclusive [inhibitor, single point]"
16,CCOc1nc(-c2ccccc2)ccc1-c1noc(COc2ccccc2)n1,"inconclusive [inhibitor, partial curve]"
17,COc1ccc(C2=NN(C(=O)CSc3nnc(C)n3C)C(c3ccco3)C2)cc1 (stereo unspecified),"inconclusive [inhibitor, single point]"
18,Cc1ccc(S(=O)(=O)Cn2nnnc2C(C(C)C)N2CCc3ccccc3C2)cc1 (stereo unspecified),"inconclusive [inhibitor, single point]"
19,CCCCNC(=S)N(C)/N=C/c1ccc(F)cc1,"inconclusive [inhibitor, single point]"
20,Cc1nc2ccccn2c1C(=O)N/N=C/c1cc(C)n(-c2ccc(Br)cc2)c1C,active: 3.98 µM
21,CC(=O)c1cccc(N=Cc2c(O)c3ccccc3oc2=O)c1,"inconclusive [inhibitor, single point]"
22,Cc1ccc(S(=O)(=O)N2[C@@H](c3cccc(Cl)c3)C(C(=O)O)=CC[C@H]2c2ccc(C(C)C)cc2)cc1,"inconclusive [inhibitor, single point]"
